# PubChem BioAssay AID686971 (National Center for Advancing Translational Sciences (NCATS), 2013)
# The whole screen tested about 360,000 compounds, of which about 7,500 (2.1%) were called active. This list was built around the results that the source calls inconclusive (neither active nor inactive); the mix of calls is not that of the screen. Calls follow the shape of the dose curve; as a rule, active = well fitted cell-killing curve with a large enough effect; inconclusive = small, poorly fitted or top-dose-only effect, or effect the other way, or another doubt; inactive = no such curve, though single readings can be large or run the other way. Potencies of inconclusive entries are left out as doubtful fits.
# Assay: qHTS for induction of synthetic lethality in tumor cells producing 2HG: qHTS for the HT-1080-IDH1KD cell line;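 as to activity, negative = toxicity: 0% = DMSO wells and -100% = cell-free medium wells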
# Conditions: HT-1080 IDH1 knockdown viability, ATP luminescence, 48 h; activity, negative = toxicity: at 46.1 µM (top of the series) unless noted
# Summary of the method: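 CellTiter-Glo luminescence after 48 h compound exposure at 37 degrees C of IDH1-knockdown HT-1080 cells in 5% FBS RPMI. %Activity scaled between DMSO wells and cell-free media wells, with curves fitted and assigned curve classes.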
# Potency is read from the fitted curve at half-maximal effect; tags tell the direction and shape of the fitted curve.
Structure (SMILES),"activity, negative = toxicity",Potency
Cc1nnc(SCC(=O)Nc2nsc(-c3ccc(C(C)(C)C)cc3)n2)s1,inactive: 1%,–
COc1ccc(/C=C/C(=O)N2CCN(S(=O)(=O)/C=C/c3ccccc3)CC2)cc1OC,–,"inconclusive [cytotoxic, partial curve]"
Cc1cc(=O)n2[nH]c(C)c(-c3ccccc3)c2n1,inactive: 8.35%,–
Nc1nc(Nc2ccccc2)nc(NC2CCCCC2)c1[N+](=O)[O-],–,"inconclusive [cytotoxic, single point]"
CC(C)OCCCNc1ncnc2c1[nH]c1ccccc12,–,"inconclusive [cytotoxic, partial curve]"
Oc1c(C(Nc2cccc(C(F)(F)F)c2)c2ccncc2)ccc2cccnc12 (stereo not drawn),–,"inconclusive [cytotoxic, partial curve]"
Cc1ccccc1CNC1CCCCC1,inactive: 1.45%,–
CCC1CCCCN1CCCNC(=O)C1CCN(Cc2nc(-c3ccc(Cl)cc3)oc2C)CC1 (stereo not drawn),–,"inconclusive [cytotoxic, single point]"
O=C(OCC(O)C(O)C(O)C(SCc1ccccc1)SCc1ccccc1)c1ccccc1 (stereo not drawn),–,"inconclusive [cytotoxic, single point]"
COc1ccc2c(C#CCCO)c(-c3ccc(S(C)(=O)=O)cc3)sc2c1,–,"inconclusive [cytotoxic, partial curve]"
Cc1c(C(=O)N/N=C/c2ccc(Cl)cc2)[nH]c2ccc(Cl)cc12,–,active: 3.26 µM
CC(C)COP(=O)(OCC(C)C)C(O)c1ccc(F)cc1 (stereo not drawn),inactive: 10.7%,–
CCC(C)(C)NC(=O)C(c1cccnc1)N(C(=O)c1csnn1)c1ccc(C)cc1 (stereo not drawn),inactive: -0.0208%,–
O=C(N/N=C/c1ccc2ccccc2c1)c1ccc(COc2ccc3c(c2)CCC3)o1,–,"inconclusive [cytotoxic, single point]"
O=C1C(Cl)=C(NCc2ccco2)C(=O)c2ccccc21,–,active: 16.4 µM
Cn1ccnc1C(=O)c1cc(SCC(=O)NC2CC2)nc2ccccc12,inactive: 0.826%,–
Cc1ccc(N=Nc2c(N)nn(-c3ccccc3)c2N)cc1,–,active: 9.2 µM
COc1ccccc1OC(C)C(=O)N1CCN(Cc2ccc3c(c2)OCO3)CC1 (stereo not drawn),inactive: 0.646%,–
CCOC(=O)C(=N/O)/C(C)=N/NC(=O)C(=O)Nc1cc(Cl)ccc1Cl,–,"inconclusive [cytotoxic, partial curve]"
CCC(C(=O)NCCCN(CC)Cc1ccccc1)n1nc(C)c2sc3ccccc3c2c1=O (stereo not drawn),inconclusive: -3.88% [cytotoxic],–
CC(=O)c1ccc(-n2nnnc2SCC(=O)Nc2cccc(NC(=O)c3ccco3)c2)cc1,–,"inconclusive [cytotoxic, single point]"
COc1ccc2[nH]c(=O)c(-c3nnn(-c4ccc(Cl)nc4)n3)cc2c1,inactive: 2.47%,–
CCc1nc2ccc(C(=O)NCC3CCCCC3)cn2c1N(CCC(C)C)CCN(C)C,–,active: 16.4 µM
CN1/C(=C/C(=O)c2nc(S(C)(=O)=O)ncc2Cl)C(C)(C)c2ccccc21,–,active: 4.61 µM
COc1ccc(OCC(=O)N/N=C/c2ccc(O[C@@H]3O[C@H](CO)[C@@H](O)[C@H](O)[C@H]3O)cc2)cc1,–,active: 1.64 µM

Structure (SMILES),"activity, negative = toxicity",Potency
O=C1c2cccc(-c3ccc(C(F)(F)F)cc3)c2C2CC=CCN12 (stereo not drawn),–,"inconclusive [cytotoxic, single point]"
O=C(/C=C\c1ccccc1)Nc1ccc(NC(=O)c2ccco2)cc1,–,"inconclusive [cytotoxic, single point]"
FC(F)(F)c1cccc(N2CCN(C(=S)NCC3CCCO3)CC2)c1 (stereo not drawn),–,"inconclusive [cytotoxic, single point]"
O=C(CSc1cccc[n+]1[O-])Nc1ccccc1C(F)(F)F,inactive: 10.5%,–
COc1cccc(CNc2nc3cc(-c4ccccc4)sc3c(=O)n2C)c1OC,–,"inconclusive [cytotoxic, partial curve]"
CCOc1ccc(CCNC(=O)COC(=O)c2[nH]c(C)c(C(C)=O)c2C)cc1OCC,–,"inconclusive [cytotoxic, single point]"
COc1ccc2cc(-c3cc(C(=O)OCC(=O)NC4CCS(=O)(=O)C4)c4ccccc4n3)ccc2c1 (stereo not drawn),–,active: 10.3 µM
COc1cc2nc(N3CCCCC3)nc(NC3CCN(Cc4ccccc4)CC3)c2cc1OC,–,active: 10 µM
CC1(C)CCN2CCC(C)(C)c3c(O)ccc1c32,–,"inconclusive [cytotoxic, single point]"
O=C(NCc1nnnn1-c1ccc(F)cc1)c1ccc([N+](=O)[O-])o1,–,active: 11.6 µM
O=C(N/N=C/c1cc(Br)ccc1O)Nc1ccccc1,–,"inconclusive [cytotoxic, single point]"
CSCc1ccc(C(=O)NC(C)c2cnn(-c3ccccn3)c2C)o1 (stereo not drawn),inactive: -6.2%,–
CC(C)(C)NC(=S)NCCc1ccccc1,inactive: 7.31%,–
CCCCn1c(-c2cc(Cl)ccc2OC)n[nH]c1=S,–,"inconclusive [cytotoxic, single point]"
Cc1cc(NC(=O)c2ccc(Cl)cc2)ccc1NC(=O)c1ccccc1Cl,inactive: -0.721%,–
Cc1ccccc1NCC(=O)N/N=C\c1ccc([N+](=O)[O-])s1,–,"inconclusive [cytotoxic, single point]"
CC(C)(C)c1cc(CN2CCCC(O)C2)c(O)c(C(C)(C)C)c1 (stereo not drawn),–,"inconclusive [cytotoxic, single point]"
COc1ccc(O)c(/C=N/NC(=O)CN2CCS(=O)(=O)CC2)c1,–,"inconclusive [cytotoxic, single point]"
CC(C)N(Cc1nc(-c2ccccc2)no1)C(=O)CN(C)S(=O)(=O)c1ccc(Br)cc1,–,"inconclusive [cytotoxic, partial curve]"
Oc1ccccc1CNc1ccc(Br)cn1,–,active: 11.6 µM
Cn1c(SCc2cccc([N+](=O)[O-])c2)nc2ccccc2c1=O,–,"inconclusive [cytotoxic, single point]"
Cn1c(N2CCC(C(N)=O)CC2)nc2c1c(=O)n(Cc1ccc(Cl)cc1)c(=O)n2C,inactive: -12.9%,–
CCN(CC)c1ccc(/C=N/NC(=O)OC(C)(C)C)cc1,inconclusive: -33.4% [cytotoxic],–
CC1(Cc2c(Cl)cccc2Cl)C(=O)Nc2cc(-c3ccccc3Cl)ccc21 (stereo not drawn),–,"inconclusive [cytotoxic, single point]"
O=[N+]([O-])c1cccc(-c2nnnn2-c2cccc(F)c2)c1,inactive: 0.319%,–

Structure (SMILES),"activity, negative = toxicity",Potency
CC(=O)Nc1cc(-c2cccc(NS(C)(=O)=O)c2)cn2c(-c3cccc(C(F)(F)F)c3)cnc12,–,"inconclusive [cytotoxic, single point]"
COc1ccc(-c2cc(NC=O)c3ncc(-c4ccc(OC)c(OC)c4)n3c2)cc1,–,active: 0.58 µM
CN(C)C1(CNC(=O)c2cccc(S(=O)(=O)NCc3ccccc3)c2)CCCCC1,–,"inconclusive [cytotoxic, partial curve]"
COc1ccc(-c2ccc(C(=O)NCC3CC3)c3occc23)c(C)c1,–,"inconclusive [cytotoxic, single point]"
COCCSc1ccccc1C(=O)Nc1cccnc1,inactive: 13.1%,–
CC(=O)Nc1ccc([N+](=O)[O-])cn1,inactive: 15.6%,–
COc1cc2cc(-c3ccc(OC)c(OC)c3C)nc(N)c2cc1OC,–,active: 1.3 µM
COc1cc(-c2nnc(NC(=O)CS(=O)(=O)c3ccc(Cl)cc3)o2)cc(OC)c1OC,inactive: -18.1%,–
COc1cc(C(=O)N/N=C(\Cc2ncc[nH]2)c2ccccc2)cc(OC)c1OC,–,active: 4.61 µM
Cc1ccc(-c2nnc(N3CCC(C)CC3)c3ccccc23)cc1C,–,active: 29.1 µM
Cc1ccc(-c2nn3c(C)nnc3s2)cc1NC(=O)c1ccc(-c2ccc(Cl)cc2Cl)o1,–,"inconclusive [cytotoxic, single point]"
O=[N+]([O-])c1cc(Br)c(O)c(/C=N/Nc2nc3ccccc3s2)c1,–,"inconclusive [cytotoxic, partial curve, poor fit]"
COc1ccccc1OCCCOc1cccc(/C=C2\SC(=O)NC2=O)c1,–,"inconclusive [cytotoxic, single point]"
Cc1ccc2[nH]cc(C(=O)CN3CCN(c4ccccc4F)CC3)c2c1,inactive: -4.58%,–
CC(C)Cc1nnc(NC(=O)CCc2c[nH]c3ccccc23)s1,–,"inconclusive [cytotoxic, single point]"
COC(=O)c1c(CCl)noc1C(=O)NCC1CCCO1 (stereo not drawn),–,active: 23.1 µM
COc1cccc(N2CCN(CC(=O)c3c[nH]c4ccc(OC)cc34)CC2C)c1 (stereo not drawn),–,"inconclusive [cytotoxic, single point]"
COc1ccc(CC(=O)NNC(=O)c2ccc(SCc3cc(F)ccc3F)c([N+](=O)[O-])c2)cc1,–,"inconclusive [cytotoxic, single point]"
CC1(Oc2ccccc2-c2ccno2)CCN(Cc2csc3ccccc23)C1 (stereo not drawn),–,"inconclusive [cytotoxic, partial curve]"
O=C(N/N=C/c1cc(Br)c(Br)o1)c1cccnc1,–,"inconclusive [cytotoxic, partial curve]"
CC(C)Nc1ncnc2c1ncn2[C@H]1CN(Cc2ccc(-c3ccccc3)cc2)C[C@@H](CO)O1,–,"inconclusive [cytotoxic, partial curve]"
NS(=O)(=O)c1ccc(N/N=C/c2cn(-c3ccccc3)nc2-c2cccs2)cc1,–,active: 20.6 µM
COc1cccc2sc(N(CCN(C)C)C(=O)/C=C/c3cccs3)nc12,–,"inconclusive [cytotoxic, single point]"
